Experimental data as given in the RNAGym collection of RNA variant scans (doi:10.7554/elife.90254).
The source gives no read counts; variants with many changes may rest on few reads.

B1: LINE1-full (parent)
chain: UACGUAGGUGGUUUUCCCCUGAUAGUGCUAAGGGGGCCUGGAAGUUUGGACUGGGCAGAGCUCAACACAGCGUGGCAAAGUGGCUGUGGCUAGACUGCCUCUCUGGAUUCCUCGUCACUCAGCAGGGCAUCUCUGAGAGAAAUGCC

Variants of: B1
Assay: self-cleavage, relative activity (ratio to wild type); higher = more cleavage; in vitro, sequencing; the parent is a self-cleaving ribozyme
For UACGUAGGUGGUUUUCCCCCGAUAGUGCUAAGGGGGCCUGGAAGCUUGGACUGGGCAGAGCUCAACACAGCGUGGCAAAGUGGCUGUAGCUAGGCUGCCUCUCUGGAUUCCUCGUCACUCAGCAGGGCAUCUCUGAGAGAAAUGCC [U20C U45C G88A A94G], the self-cleavage was 0.09. With UACGUAGGUGGUUUUCCCCCGAUAGUGCUAAGGGGGCCUGGAAGUUUGGACUGGGCAGAGCACAACACAGCGUGGCAAAGUGGCUGUGGCUAGACUGCCUCUCUGGAUUCCUCGUCACUCAGCAGGGCAUCUCUGAGGGAAAUGCC [U20C U62A A138G] the self-cleavage was 0.05. With UACGUAGGUGGUUUUCCCCCGAUAGUGCUAAGGGGGCCUGGAAGUCUGGACUGGGCAGAGCUCAACACAGCGUGGCAGAGUGGCUGUGGCUAGACUGCCUCUCUGGAUUCCUCGUCACUCAGCAGGGCGUCUCUGAGAGAAAUGCC [U20C U46C A78G A129G] the self-cleavage was 1.91. UACGUAGGUGGUUUUCCCCCGAUAGUGCUAAGGGGGCCUGGAAGUGUGGACUGGGCAGAGCUCAACACAGCGUGGCAAAGAGGCUGUGGCUAGACUGCCUCUCUGGAUUCCUCGUCACUCAGCAGGGCAUCUCCGAGAGAAAUGCC [U20C U46G U81A U134C] showed a self-cleavage of 2.03. Variant UACGUAGGUGGUUUUCCCCCGAUAGUGCUAAGGGGGCCCGGAAGUUUGGACUGGGCAGAGCUCAACACAGCGAGGCAAAGUGGCUGUGGCUAGACUGCCUCUCUGGAUUCCUCGUCACUCAGCAGGGCAUCUCUGAGAGAAAUGCC [U20C U39C U73A] has a self-cleavage of 2.02. For UACGUAGGUGGUUUUCCCCCGAUAGUGCUAAGGGGGCCUGGAAGCUUGGACUGGGCAGAGCUCAACACAGCGUGGCAAAGUGGCUGUGGCUAGACUGCCUCUCUGGAUUCCUCGUCACUCAGCAGGGCAUCUCUGAGAGAGAUGCC [U20C U45C A141G], the self-cleavage was 1.79. UACGUAGGUGGUUUUCCCCCGAUAGUGCUAAGGGGGCCUGGAAGUUGGGACUGGCCAGAGCUCAACACAGCGUGGCAAAGUGGCUGUGGCUAGACUGCCUCUCUGGAUUCCUCGUCACUCAGCAGGGCAUCUCUGAGAGAAAUGCC [U20C U47G G55C] showed a self-cleavage of 0.16. For UACGUAGGUGGUUUUCCCCCGAUAGUGCUAAGGGGGCCUGGAAGUUUGGACUGGGCAGAGCUCAACACAGCGUGGCAAAGUGGCCGUGGCUAGACUGCCUCUCAGGAUUCCUCGUCACUCAGCAGGGCAUCUCUGAGAGAAAUGCC [U20C U85C U104A], the self-cleavage was 0.15. Work on UACGUAGGUGGUUUUCCCCCGAUAGUGCUAAGGGGGCCUGGAAGUUUGGACUGGGCAGAGCCCAACACAGCGUGGCAAAGUGGCUGUGGCUAGACUGCCUCUCUGGAUUCCUCGUCACUCAGCAGGGCAUCACUGAGAGGAAUGCC [U20C U62C U132A A140G] yielded a self-cleavage of 0.03. For UACGUAGGUGGUUUUCCCCCGAUAGUGCUAAGGGGGCCUGGAAGUUAGGACUGGGCAGAGCUCAACACAGCGUGGCAAAGUGGCUGCGGCUAGACUGCCUCUCUGGAUUCCUCGUCACUCAGCAGGACAUCUCUGAGAGAAAUGCC [U20C U47A U87C G127A], the self-cleavage was 0.17. Variant UACGUAGGUGGUUUUCCCCCGAUAGUGCUAAGGGGGCCUGGAAGUUUGGACUGGGCAGAGCUCAACACAGCGUGGCAAAGUGGCCGUGGCUGGACUGCCUCUCUGGAUUCCUCGUCACUCAGCAGGGCGUCUCUGAGAGAAACGCC [U20C U85C A92G A129G U143C] has a self-cleavage of 0. UACGUAGGUGGUUUUCCCCCGAUAGUGCUAAGGGGGCCUGGAAGAUUGGACUGGGCAGAGCUCAACACAGCGUGGCAAAGUGGCUGUGGCUAGACUGCCUCUCUGGAUUCCUCGUCACUCAGCAGGGCAUCUCUGAGAGAAGUGCC [U20C U45A A142G] showed a self-cleavage of 1.49. UACGUAGGUGGUUUUCCCCCGAUAGUGCCAAGGGGGCCUGGAAGUUUGGACUGGGCAGAGCUCAACACAGCGUGGCAAAGUGGCUGUGGCUAGAAUGCCUCUCUGGAUUCCUCGUCACUCAGCAGGGCUUCUCUGAGAGAAAUGCC [U20C U29C C95A A129U] showed a self-cleavage of 0.08. With UACGUAGGUGGUUUUCCCCCGAUAGUGCUAAGGGGGCCUGGAAGUUAGGACUGGGCAGAGCUCAACACAGCGAGGCAAAGUGGCUGUGGCUAGACUGCCUCUCUGGAUUCCUCGUCACUCAGCAGGGCAUCUCUGAGAGAAAUGCC [U20C U47A U73A] the self-cleavage was 1.4. UACGUAGGUGGUUUUCCCCCGAUAGUGCUAAGGGGGCCUGGAAGUUUGGACAGGGCAGAGCUCAACACGGCGUGGCAAAGUGGCUGUGGCUAGACUGCCUCUCUGGAUUCCUCGUCACUCAGCAGGGCAUCUCUGAGAGAAAUGCC [U20C U52A A69G] gave a self-cleavage of 1.15. Variant UACGUAGGUGGUUUUCCCCCGAUAGUGCUAAGGGGGCCUGGAAGUUCGGACUGGGCAGAGCUCAACACAGCGUGGCAAAGUGGCUGUGGCUAGACUGCCUCUCUGGAUUCCUCGUCACUCAGCAGGGCAUCUCUGAGAGUAAUGCC [U20C U47C A140U] has a self-cleavage of 0. For UACGUAGGUGGUUUUCCCCCGAUAGUGCUAAGGGGGCCUGGAAGUUUGGACUGGGCAGAGCCCAACACAGCGUGGCAAAGUGGCUGUGGCUAGACUGCCCCUCUGGAUUCCUCGCCACUCAGCAGGGCAUCUCUGAGAGAAAUGCC [U20C U62C U100C U115C], the self-cleavage was 0. In the case of UACGUAGGUGGUUUUCCCCCGAUAGUGCUAAGGGGGCCUGGAAGUUCGGGCUGGGCAGUGCUCAACACAGCGUGGCAAAGUGGCUGUGGCUAGACUGCCUCUCUGGAUUCCUCGUCACUCAGCGGGACAUCUCUGAGAGAAAUGCC [U20C U47C A50G A59U A124G G127A], the self-cleavage is reported as 1.88. Variant UACGUAGGUGGUUUUCCCCCGAUAGUGCUAAGGGGGCCUGGAAGUUCGGACAGGGCAGAGCUCAACACAGCGUGGCAAAGUGGCUGUGGCUAGACUGCCUCUCUGGAUUCCUCGUCACUCAGCAGGGCAUCUCUGAGAGAAAUGCC [U20C U47C U52A] has a self-cleavage of 1.49.
